Results taken from publication PMC10726135.
The list shows a part of the results. At the low end of the ranking the order means little. The protein was read in a cell extract, so binding may be indirect.

Target: T1, HNF4alpha2 (COS-7 nuclear extract) (UniProt P41235)
T1 sequence: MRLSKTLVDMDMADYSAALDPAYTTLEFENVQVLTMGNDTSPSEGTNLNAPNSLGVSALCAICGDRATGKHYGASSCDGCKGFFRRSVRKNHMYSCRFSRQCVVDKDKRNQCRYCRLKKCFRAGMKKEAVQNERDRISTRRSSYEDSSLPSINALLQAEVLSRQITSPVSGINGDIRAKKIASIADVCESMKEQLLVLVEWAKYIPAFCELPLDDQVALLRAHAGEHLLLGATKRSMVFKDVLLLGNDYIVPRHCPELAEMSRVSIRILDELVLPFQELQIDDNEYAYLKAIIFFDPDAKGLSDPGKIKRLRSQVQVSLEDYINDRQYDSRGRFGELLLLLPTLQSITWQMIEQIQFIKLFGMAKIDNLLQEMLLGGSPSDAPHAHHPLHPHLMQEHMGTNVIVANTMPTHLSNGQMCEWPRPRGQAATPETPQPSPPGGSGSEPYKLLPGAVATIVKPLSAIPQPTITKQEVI
Assay: protein-binding microarray
Conditions: COS-7 nuclear extract on double-stranded Agilent 4x180k PBM; binding buffer, salt, pH and temperature not given; high values mean tight binding; double strand, one strand shown; sequences stand for … in …GCCTAGGGAGATTAGAGTATCGGTCGA

Sequence | binding signal (log2 normalized intensity)
GGAGGCATTCCTGCAATCAGAGCTGGATGT | -0.787
GGCGACGGACGCGCCGCGCCGGGGAAGCTG | -1.07
TGGTGAAAGGAGGAATCTGTGAAGGTCAGG | 1.21
ATGTCTGTAGGTAAGCACAAAGTACAGCTT | 1.15
GAGCTGGGTGGCCCTCTCCCGGGGAGGTCA | 1.97
CCAGAATTGCTTTACGAAGTGTTTGTCAAG | 1.42
CCACACCGAGATAGTAGAGATAGTGATCAA | -0.994
GAAAACATCATTCCGTGACTGAGCTCGCGC | -0.72
AAAGACCTTGCTGATAAAACAGCATGCGGT | -1.01
AGGGGGATTACCTAAACAGCAACTGTAGTG | -1.12
CCACCCCTCCTCCTGGGGGCTTTTGTTTAG | 1.46
ATGTCAGGAGCCCCACTGTAGTAAGGGAGT | -0.326
AGTTGATTGCACCCTTCCCTAAGATTTATC | 1.02
AGGCCATCCCAGTTACTCAGCGAATACCAA | -1.18
GATTACGTGTTCCCAGGATGAGGCCGTTCT | 1.32
TGTGTACCTCATCTTCTTTCCTGGTGCCTC | 1.39
CGCCTGACCTGGCCCCTGAGGGTGCTGAGC | -0.901
TCATTCCCCTAGTATATTGGCTTGGCTGTG | 2.58
AGCCTGCAGCACCTTGATGCTGGACTTCAG | 2.61
GTTCTCTCCGGGTAAAGGTGAAGGCTGACC | 1.43
ACAGTCTTGGGCACAAAGTACAAAAGAGGC | 1.44
TTCAAGGGCCACTCAGTTGAAGTTCCAGAA | 0.0749
AGAAGAAAAGAGTTGCTCAAACCAACATTA | -1.16
AACCTAGGAAATCAAAAACCATTTGACAAT | -1.2

Sequence | binding signal (log2 normalized intensity)
GAAGGAGCACCAATGACCTTTGACCCTTCT | 11.1
AAGAAAAAACAGGTGTTCTTTCCCTCCAGC | -1.11
TGGACAGGGGTGTGTTGACCGATAACCCTC | 2.25
TAGCCTGAAAATGTTTGCCGACCTCCTGAC | 0.363
CTGGCAGAGGAAAAAGTCCCTGGTCCCATA | -1.13
TCCAGAACCAAGATTTACATCCTATCCTGG | -0.71
AACAGCACTTGTGCAGTTTTTCTGCCGAAG | -1.1
ACGTTGTACCCCACAGGTATTCTTTCATCC | 1.35
GACCAACAGAGAAGGCCCTGAACTCCCAGC | -1.18
GGGAAAACTGATAAAGGGTGAGTGCATGAA | -1.06
GAAGGAATGTAAACTCCAAGGAGCAAATCC | -1.06
CTAGGAGATACGCCTGAACTTTGATCAGCA | 5.59
GGAATGCCCTTATCTCCCAGCCACCAAATC | 2.35
GGGGCCTTTAGCACCTTCATCCAAAGATGA | -1.15
GATAAAGGGTTACAAACTTCAAGGTCCATT | 1.85
CGACCTTTGCTCCCGACTCTGAGGCTCCAT | 4.94
TTGACTCAGTTGCAGAAAAACAGGTTCTGC | -0.587
GGCCAGGCCAAATCAGAACTGAGTTACTTG | -1.17
GGTCAAGCCCAACCAAAGTAGAGGAATGCT | -1.04
ATCCAGCAGACTTAGACCCTGACCTGGCAT | 1.5
CTGATAGCGAGTTATCTGCATTCCAGCTCA | -1.11
GGAGGAGAGAAGGGCTGAAGGTTAATTCGC | -0.453
ATGTTTCAAGTGGCCTGATTTGACAAGGCA | 1.56
TAAAACAGTCCATTTCAGTGAACTTTTCAA | 1.05

Sequence | binding signal (log2 normalized intensity)
GCCGGGTCACGTGGGTCCAGGGTCACGTGC | 2.79
AATGCTGTTAGCACTCAGTCATTGCCATCT | -1.03
GATACAGATAAATAAATCAAGATCACTGCC | -1.13
CCTATAGCCTCACTTGCTGATAAGGCAGAC | -1.1
TCTGCGCAGGGAGGAGCGCATCGGGCGCCA | -1.09
ATAAAGTGGATGGAGCAATTCAACAACTGT | -1.17
CACCGTTGGAATGTTCCAAGACCTTTGAAG | 1.64
CACGCCCACCCTATTGATGCAAGGACAATG | 1.55
TTTAAGTAAGCCCCCTTCCCCCCTGGGCAA | 4.59
CTGATCAAATTCCACACCCCCCACTCTTCA | 4.34
ATTCAGAATAGTTAAGTAACGTGTCAGAGG | 0.996
CAAAAGTTCAAACTTTATTTGATGATGAAG | 0.732
GTGCTAGCTCCGACTCAGTGGGGGGGGGGG | -1.17
ATTCCATCATCACGGTGGACATTGTCCAAG | 3.16
TTGGCTAAAGTCCAAATTCCTTGGAATACA | 3.12
TGACCTCTGCTTCCTGCTACAGAGCTCAGA | -0.966
CTTGGGAAAGGAGAAGCTGGAGATAAGGAT | -1.14
ATGTACATGGACTTTGAACCAAGATATGCT | 6.75
AATAAATAACTCTAAGAAATAGGTTAAAGA | -0.3
GCTCTAGATCTCAAAGTCCAAATAGCGCTA | 3.11
GGGGCGGTTTTTCCATTGTACTCAGTATGT | 1.97
TGCGGTGAGCATTTGTTTAGGAATTTATCT | -0.542
ATCTCCCAGTTCTTTTGACCTTTGCCTCAT | 7.95
GTATGAGATAAGGCTAGTAACACTCACATT | -1.21
